Test results reported in PubChem BioAssay AID1963576 (National Center for Advancing Translational Sciences (NCATS), 2024).
Hit rate of the full screen: of about 46,000 compounds, about 60 (0.1%) were called active. Inconclusive means that the source gave no clear call. Such entries were picked first, then a sample of the others. Calls come from the whole dose curve; as a rule, active = well fitted inhibition curve with a large enough effect; inconclusive = small, poorly fitted or top-dose-only effect; inactive = no such curve, though single readings can be large or run the other way. Potencies of inconclusive entries are left out as doubtful fits.

Test: Primary qHTS assay for Inhibitors of ovarian cancer metastasis using an organotypic tumor microenvironment (TME) model.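 For Potency: count of GFP cancer cells still attached after washing and fixation.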 Note: nearly all actives have a fitted effect of over 65% in size.
Settings: SKOV3ip1-GFP adhesion/invasion on 3D omental model, fluorescence; series mostly up to 45.8 µM
Procedure, shortened: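 Adhesion/invasion was scored as fixed GFP-labeled SKOV3ip1 cell counts (488/509 nm), normalized to DMSO and tomatine controls. Cancer cells in serum-free medium, with four compound doses (0.36-46 umol/L), sat 2 hr at RT then 16 hr at 37 C on a 48 hr fibroblast/mesothelial/ECM culture.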
Potency is the fitted concentration of half-maximal effect; tags give direction and shape of the fitted curve.

Row | Structure (SMILES) | Potency
1 | Cc1ccc(Cl)cc1N1CCN(C(=O)C2CCN(Cc3nc(-c4cccc(Cl)c4)oc3C)CC2)CC1 | inactive
2 | CCOC(=O)C1CCN(S(=O)(=O)c2ccc3c(c2)NC(=O)C(C)C(=O)N3)CC1 (centres undefined) | inactive
3 | O=c1c2[nH]c3ccccc3c2nc(SCc2cccc(F)c2)n1-c1ccccc1 | inconclusive [inhibitor, single point]
4 | Cc1ccc(Cl)cc1N1CCN(C(=O)c2ccc(C)c(-n3c(C)nc4cccnc43)c2)CC1 | inactive
5 | CCN(CCCNC(=O)c1cc2cc3ccc(OC)cc3nc2s1)c1ccccc1 | inconclusive [inhibitor, single point]
6 | CCN1CCC(N(Cc2ccc3c(c2)OCO3)C(=O)Nc2ccc(Br)c(C)c2)CC1 | inconclusive [inhibitor, single point]
7 | OC[C@H]1O[C@@H](Oc2ccc(O)cc2)[C@H](O)[C@@H](O)[C@H]1O | inactive
8 | Cc1cccc(NC(=O)CSc2cc(C)c3ccccc3n2)c1 | inconclusive [inhibitor, single point]
9 | CCc1cccc(C)c1NC(=O)CSc1nnc(N)s1 | inactive
10 | CCOc1ccc(NC(=O)c2ccc(F)c(S(=O)(=O)NCc3ccc4c(c3)OCO4)c2)cc1 | inactive
11 | O=C(COc1ccc(F)cc1)Nc1ccc2nc(SCc3ccccc3)sc2c1 | inactive
12 | COc1cc(CNC(=O)c2cc3n(n2)CCCN(Cc2ccc(C)cc2)C3=O)cc(OC)c1OC | inactive
13 | CCOC(=O)c1cc(-c2ccccc2)n(CCCC(=O)Nc2cccc(Cl)c2C)c1C | inconclusive [inhibitor, single point]
14 | Cc1cc(C)cc(NC(=O)Cn2nnc(C(=O)Nc3cc(C)cc(C)c3)c2N)c1 | inconclusive [inhibitor, single point]
15 | O=C(CC(c1ccccc1)c1cc(Br)ccc1O)NCC1(c2ccccc2)CCCC1 (centres undefined) | inconclusive [inhibitor, single point]
16 | CCOC(=O)c1ccc(NC(=O)Cc2ccc(-n3c(CC)nc4cccnc43)cc2)cc1 | inactive
17 | COc1ccc2c(c1)CC[C@@H](CN(C)CC(=O)O)[C@H]2c1ccccc1 | inactive
18 | O=C(CSc1nc2ccsc2c(=O)n1Cc1ccccc1F)NCc1ccccc1 | inconclusive [inhibitor, single point]
19 | Cc1ccc(CCNC(=O)c2cc3c(s2)-c2ccccc2OC3)cc1 | inconclusive [inhibitor, single point]
20 | O=S(=O)(Nc1ccc(F)c(C(F)(F)F)c1)c1ccc(N2CCCCS2(=O)=O)cc1 | inconclusive [inhibitor, full curve, poor fit]
21 | COCCNC(=O)c1ccc2c(c1)NC(=O)C(CS(=O)(=O)Cc1ccc(F)cc1Cl)N2 (centres undefined) | inconclusive [inhibitor, single point]
22 | O=C1C2=C(Nc3ccccc3SC2c2ccc(C(F)(F)F)cc2)c2ccccc21 (centres undefined) | inconclusive [inhibitor, single point]

Row | Structure (SMILES) | Potency
23 | CCCN(CCC)CCCNC(=O)c1cc2c(-c3ccc(Cl)cc3)nn(C)c2s1 | inconclusive [inhibitor, single point]
24 | COC(=O)c1c(NC(=O)C2c3ccccc3Oc3ccccc32)sc2c1CCC(C)C2 (centres undefined) | inconclusive [inhibitor, single point]
25 | Cc1cc(OCC(=O)NCC2(N3CCOCC3)CCCCC2)ccc1Cl | inconclusive [inhibitor, single point]
26 | CCCN(CCC)CCNC(=O)c1cc(-c2ccc(Br)s2)nc2ccccc12 | inconclusive [inhibitor, partial curve, poor fit]
27 | COc1ccccc1CN1CCC(CNC(=O)c2cnn(-c3ccc(C)c(C)c3)c2C2CCN(C(=O)OC(C)(C)C)CC2)CC1 | inconclusive [inhibitor, single point]
28 | Cc1cncn1CCc1nc2c3ccccc3nc(SCC(=O)Nc3ccccc3F)n2n1 | inconclusive [inhibitor, single point]
29 | COc1ccccc1CNC(=O)c1cc2c(s1)-c1ccccc1OC2 | inconclusive [inhibitor, single point]
30 | CCCCN(C)CCCNC(=O)Cn1ncc2c3ccccc3n(Cc3cc(C)ccc3C)c2c1=O | inconclusive [inhibitor, single point]
31 | COc1ccc(-c2cn3c(n2)sc2cc(C(=O)NCCc4ccc(OC)cc4OC)ccc23)cc1 | inconclusive [inhibitor, full curve, poor fit]
32 | COc1ccccc1CN1CCC(CNC(=O)c2cnn(-c3ccc(Cl)cc3)c2C2CCN(C(=O)OC(C)(C)C)CC2)CC1 | inconclusive [inhibitor, single point]
33 | COC(=O)c1cc(NC(=O)c2ccc3c(c2)NC(=O)c2ccccc2S3)cc(C(=O)OC)c1 | inactive
34 | CCSc1nn(CC(=O)Nc2ccc(C(=O)OC)cc2)c(N)c1S(=O)(=O)c1ccc(C)cc1 | inactive
35 | CC(C)Oc1cc(Nc2nc(N[C@@H](C)c3ccc(F)cn3)ncc2Cl)[nH]n1 | inconclusive [inhibitor, single point]
36 | CC(C)CS(=O)(=O)c1oc(-c2ccc(F)cc2)nc1S(=O)(=O)c1ccccc1 | inconclusive [inhibitor, full curve, poor fit]
37 | CCCCOc1ccc(CNC(=O)c2cc3n(n2)CCCN(Cc2ccc(C)cc2)C3=O)cc1 | inactive
38 | COc1ccc(N2CCN(C(=O)CCNS(=O)(=O)c3ccc4c(c3)CCN4C(=O)C3CC3)CC2)cc1 | inactive
39 | CCN1CCC(N(Cc2ccc3c(c2)OCO3)C(=O)Nc2cc(Cl)ccc2C(=O)OC)CC1 | inconclusive [inhibitor, single point]
40 | Cc1ccc(-c2nc3ccc(Cl)cn3c2Nc2ccc3c(c2)OCCO3)o1 | inconclusive [inhibitor, partial curve, poor fit]
41 | COc1ccc(N(Cc2cccs2)C(=O)c2ccccc2C)cc1 | inactive
42 | Cc1ccc(CS(=O)(=O)c2cn(CC(=O)N(C)c3ccccc3)c3ccccc23)cc1 | inconclusive [inhibitor, single point]
43 | CCOC(=O)c1c(-c2ccccc2)oc2ccc(NS(=O)(=O)c3ccc(OC)cc3)cc12 | inconclusive [inhibitor, full curve, poor fit]
44 | Cc1cccc(C(=O)Nc2c3c(nn2-c2ccc(Cl)cc2)CS(=O)(=O)C3)c1 | inactive

Row | Structure (SMILES) | Potency
45 | Cc1ccc(NC(=O)CSc2nc3ccccc3c3nc(CCn4cncc4C)nn23)cc1F | inconclusive [inhibitor, single point]
46 | Cc1cc(-c2ccc(C)c(S(=O)(=O)N3CCCC(C)C3)c2)on1 (centres undefined) | inconclusive [inhibitor, single point]
47 | COc1ccc(N2CCN(C(=O)Cc3coc4ccc(C)cc34)CC2)cc1 | inactive
48 | CCC12CN3CC(C)(CN(C1)C3c1ccc(O)cc1O)C2=O (centres undefined) | inconclusive [inhibitor, single point]
49 | COCCNC(=O)CSc1c2c(nc3cc(Cl)ccc13)CCCC2 | inconclusive [inhibitor, single point]
50 | Cc1cccc(N2CCN(C(=O)c3ccc4c(c3)N(Cc3ccccc3F)C(=O)c3ccccc3S4=O)CC2C)c1 (centres undefined) | inactive
51 | O=C(Nc1ccc(Cl)cc1)c1cnn2c1NC(c1ccccc1)=CC2c1ccccc1 (centres undefined) | inactive
52 | CC(=O)O[C@H]1C(=O)[C@@]2(C)C([C@H](OC(=O)c3ccccc3)[C@]3(O)C[C@H](OC(=O)[C@H](O)[C@@H](NC(=O)c4ccccc4)c4ccccc4)C(C)=C1C3(C)C)[C@]1(OC(C)=O)CO[C@@H]1C[C@@H]2O (some centres undefined) | inactive
53 | CCOC(=O)c1scc(-c2ccccc2)c1S(=O)(=O)N1CCN(c2ccc(Cl)cc2)CC1 | inactive
54 | Fc1ccccc1Nc1c2c(nc3ccccc13)CCC2 | inactive
55 | CCOc1cc(C(c2c(C)[nH]n(-c3ccccc3)c2=O)c2c(C)[nH]n(-c3ccccc3)c2=O)ccc1O | inconclusive [inhibitor, single point]
56 | COC(=O)c1ccc(NC(=O)c2c(NCc3cccc(F)c3)sc3c2CCCC3)cc1 | inconclusive [inhibitor, single point]
57 | CCCn1c2ccccc2c2cnn(CC(=O)NCC3CCN(Cc4ccc(C)cc4)CC3)c(=O)c21 | inconclusive [inhibitor, full curve, poor fit]
58 | COc1ccc(OCC(=O)Nc2ccc(-c3nc4cc(Cl)ccc4o3)cc2)cc1 | inactive
59 | Cc1cc(Nc2cccc(C(F)(F)F)c2)nc2ccc(NC(=O)Cc3ccc(Cl)cc3)cc12 | inactive
60 | Cc1cc(N2CCOCC2)cc2[nH]c(-c3c(NC[C@@H](O)c4cccc(Cl)c4)cc[nH]c3=O)nc12 | inconclusive [inhibitor, single point]
61 | Cc1cc(=O)n(Cc2cccc(Cl)c2)c2c1c(C)nn2C | inconclusive [inhibitor, single point]
62 | CCOc1ccccc1CNC(=O)CSc1n[nH]c(-c2ccccc2)n1 | inconclusive [inhibitor, single point]
63 | COc1cc(OC)c(-c2cc(C(=O)NCc3ccc(F)cc3)c3c(-c4ccccc4)[nH]nc3n2)cc1OC | inconclusive [inhibitor, single point]
64 | O=C(Nc1cccc(C(F)(F)F)c1)c1cc(-c2ccc3c(c2)OCCO3)on1 | inconclusive [inhibitor, single point]
